Measurements published in article PMC5466610.
Like-named read-outs stand apart in the source and are kept apart here. No constants are given. Whether binding was seen depends on the method and setting. For part of these data: In cells and extracts the contact can be indirect. Some binding calls cover weakened binding; strength is not graded here. For part of these data: Tags and fused reporters may be left off the sequences shown.

The chains behind the UniProt entries cited, without tags or fusion partners.
UniProt Q9FIP9: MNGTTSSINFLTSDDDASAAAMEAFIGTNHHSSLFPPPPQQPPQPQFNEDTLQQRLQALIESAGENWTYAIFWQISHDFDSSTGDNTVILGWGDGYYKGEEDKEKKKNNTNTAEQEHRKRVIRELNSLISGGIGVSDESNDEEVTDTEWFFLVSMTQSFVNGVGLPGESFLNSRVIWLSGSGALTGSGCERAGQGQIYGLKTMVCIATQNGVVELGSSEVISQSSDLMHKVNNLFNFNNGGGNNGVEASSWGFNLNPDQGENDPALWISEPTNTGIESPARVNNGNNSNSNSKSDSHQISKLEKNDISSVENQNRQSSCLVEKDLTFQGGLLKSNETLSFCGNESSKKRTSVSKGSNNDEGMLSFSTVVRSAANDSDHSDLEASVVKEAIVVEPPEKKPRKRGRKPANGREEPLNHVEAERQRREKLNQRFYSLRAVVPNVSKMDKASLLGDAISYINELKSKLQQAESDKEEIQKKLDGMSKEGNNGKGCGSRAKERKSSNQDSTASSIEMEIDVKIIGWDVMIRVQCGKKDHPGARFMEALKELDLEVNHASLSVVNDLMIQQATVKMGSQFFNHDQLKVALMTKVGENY
UniProt O49687: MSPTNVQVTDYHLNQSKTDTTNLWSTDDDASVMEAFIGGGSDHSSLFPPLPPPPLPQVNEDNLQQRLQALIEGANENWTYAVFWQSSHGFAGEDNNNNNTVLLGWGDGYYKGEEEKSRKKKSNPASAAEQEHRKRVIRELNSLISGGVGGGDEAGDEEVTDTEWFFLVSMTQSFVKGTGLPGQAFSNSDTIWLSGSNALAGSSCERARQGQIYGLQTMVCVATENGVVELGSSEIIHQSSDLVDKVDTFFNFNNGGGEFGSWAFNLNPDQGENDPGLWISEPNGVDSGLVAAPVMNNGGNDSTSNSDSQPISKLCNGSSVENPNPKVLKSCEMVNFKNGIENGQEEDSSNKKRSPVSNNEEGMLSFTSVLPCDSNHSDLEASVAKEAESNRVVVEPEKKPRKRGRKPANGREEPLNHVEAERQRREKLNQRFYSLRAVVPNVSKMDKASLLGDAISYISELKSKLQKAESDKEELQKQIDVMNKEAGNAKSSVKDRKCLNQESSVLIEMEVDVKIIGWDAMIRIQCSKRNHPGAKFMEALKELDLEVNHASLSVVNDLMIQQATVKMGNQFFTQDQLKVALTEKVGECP

T1: AKIN10^397–512 (Arabidopsis thaliana) (UniProt Q38997)
T1 sequence: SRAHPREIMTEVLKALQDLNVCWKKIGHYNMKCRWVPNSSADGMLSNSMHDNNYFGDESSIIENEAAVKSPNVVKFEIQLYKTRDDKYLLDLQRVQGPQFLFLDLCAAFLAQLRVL

T2: GFP-tagged AKIN10 (Arabidopsis thaliana) (UniProt Q38997)
T2 sequence: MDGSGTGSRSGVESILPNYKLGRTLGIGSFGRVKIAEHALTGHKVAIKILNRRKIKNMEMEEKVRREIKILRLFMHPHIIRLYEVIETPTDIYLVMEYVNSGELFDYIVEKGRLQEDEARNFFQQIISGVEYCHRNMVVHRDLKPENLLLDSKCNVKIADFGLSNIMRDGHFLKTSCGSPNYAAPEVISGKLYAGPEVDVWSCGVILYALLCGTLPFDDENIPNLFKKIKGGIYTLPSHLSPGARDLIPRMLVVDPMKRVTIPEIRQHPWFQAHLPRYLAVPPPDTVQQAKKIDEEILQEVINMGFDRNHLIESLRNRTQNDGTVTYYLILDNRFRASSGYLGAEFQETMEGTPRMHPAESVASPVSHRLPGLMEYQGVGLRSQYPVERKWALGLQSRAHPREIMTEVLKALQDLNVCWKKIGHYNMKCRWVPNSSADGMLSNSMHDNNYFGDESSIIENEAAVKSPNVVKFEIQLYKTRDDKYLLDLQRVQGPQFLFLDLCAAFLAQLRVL


Key:
[1] = molecular target: T1, AKIN10^397–512 (Arabidopsis thaliana); experiment: two-hybrid; Matchmaker GAL4 system, yeast strain AH109; AKIN10 fragments as GAL4 BD fusions (pGBKT7), EIN3 fragment as GAL4 AD fusion (pGADT7); growth on -Leu -Trp -His medium with 0.5 mM or 1.5 mM 3-AT, 30 °C, 3 to 4 days
[2] = molecular target: T1, AKIN10^397–512 (Arabidopsis thaliana); experiment: as above; remark: listed apart in the source
[3] = molecular target: T2, GFP-tagged AKIN10 (Arabidopsis thaliana); experiment: co-IP; Arabidopsis protoplasts transfected with GFP-tagged AKIN10 and HA-tagged EIN3 200-500; IP with anti-GFP antibody and Protein A beads at 4 °C in 50 mM Tris-HCl pH 7.5, 150 mM NaCl, 5 mM EDTA, 1 mM DTT, 1% Triton-X100; blot with anti-HA

Row | Molecule | binding [1] | binding [2] | also measured
1 | MYC3 (from UniProt Q9FIP9 1-592) | no binding |  | 
2 | MYC4 (from UniProt O49687 1-589) | no binding |  | 
3 | EIN3^200–500 (domain or fragment, UniProt O24606 200-500) PQRRFPLEKGVPPPWWPNGKEDWWPQLGLPKDQGPAPYKKPHDLKKAWKVGVLTAVIKHMFPDIAKIRKLVRQSKCLQDKMTAKESATWLAIINQEESLARELYPESCPPLSLSGGSCSLLMNDCSQYDVEGFEKESHYEVEELKPEKVMNSSNFGMVAKMHDFPVKEEVPAGNSEFMRKRKPNRDLNTIMDRTVFTCENLGCAHSEISRGFLDRNSRDNHQLACPHRDSRLPYGAAPSRFHVNEVKPVVGFPQPRPVNSVAQPIDLTGIVPEDGQKMISELMSMYDRNVQSNQTSMVMEN |  | binds | 
4 | HA-tagged EIN3^200–500 (domain or fragment, UniProt O24606 200-500) PQRRFPLEKGVPPPWWPNGKEDWWPQLGLPKDQGPAPYKKPHDLKKAWKVGVLTAVIKHMFPDIAKIRKLVRQSKCLQDKMTAKESATWLAIINQEESLARELYPESCPPLSLSGGSCSLLMNDCSQYDVEGFEKESHYEVEELKPEKVMNSSNFGMVAKMHDFPVKEEVPAGNSEFMRKRKPNRDLNTIMDRTVFTCENLGCAHSEISRGFLDRNSRDNHQLACPHRDSRLPYGAAPSRFHVNEVKPVVGFPQPRPVNSVAQPIDLTGIVPEDGQKMISELMSMYDRNVQSNQTSMVMEN |  |  | binding [3]: binds
5 | EIN3^315–628 (domain or fragment, UniProt O24606 315-628) GSCSLLMNDCSQYDVEGFEKESHYEVEELKPEKVMNSSNFGMVAKMHDFPVKEEVPAGNSEFMRKRKPNRDLNTIMDRTVFTCENLGCAHSEISRGFLDRNSRDNHQLACPHRDSRLPYGAAPSRFHVNEVKPVVGFPQPRPVNSVAQPIDLTGIVPEDGQKMISELMSMYDRNVQSNQTSMVMENQSVSLLQPTVHNHQEHLQFPGNMVEGSFFEDLNIPNRANNNNSSNNQTFFQGNNNNNNVFKFDTADHNNFEAAHNNNNNSSGNRFQLVFDSTPFDMASFDYRDDMSMPGVVGTMDGMQQKQQDVSIWF |  | no binding | 
6 | MYB2 (protein, UniProt Q39028 1-273) MEDYERINSNSPTHEEDSDVRKGPWTEEEDAILVNFVSIHGDARWNHIARSSGLKRTGKSCRLRWLNYLRPDVRRGNITLEEQFMILKLHSLWGNRWSKIAQYLPGRTDNEIKNYWRTRVQKQAKHLRCDVNSNLFKETMRNVWMPRLVERINAQSLPTTCEQVESMITDPSQPVNEPSPVEPGFVQFSQNHHQQFVPATELSATSSNSPAETFSDVRGGVVNGSGYDPSGQTGFGEFNDWGCVGGDNMWTDEESFWFLQDQFCPDTTSYSYN |  | no binding | 
